The subject of the test is peptide-pulsed B6 splenocyte targets in acute LCMV-infected mice. Details: species or system C57BL/6 (B6) mice. As to conditions: mouse, iv.

As to STNLFNNL [VV-E7R], the “Specific lysis of peptide-pulsed targets in vivo (four peak assay)” value is recorded as “no killing was observed”.

The record behind these values is PMC3844262 (Journal of immunology (Baltimore, Md. : 1950), 2013).
